The other results are listed elsewhere or left out.
How the values were obtained:
Experiment in all cases: glycan array binding signal (z-score within array); higher = stronger binding
Conditions in all cases: glycan notation: IUPAC condensed, linker removed
[1] = biological target: GlcNAc(b1-3)Gal(b1-4)GlcNAc(b1-3)Gal(b1-4)GlcNAc(b1-3)Gal(b1-4)GlcNAc(b1-3)Gal(b1-4)GlcNAc(b1-2)[GlcNAc(b1-3)Gal(b1-4)GlcNAc(b1-3)Gal(b1-4)GlcNAc(b1-3)Gal(b1-4)GlcNAc(b1-3)Gal(b1-4)GlcNAc(b1-6)]Man(a1-6)[GlcNAc(b1-3)Gal(b1-4)GlcNAc(b1-3)Gal(b1-4)GlcNAc(b1-3)Gal(b1-4)GlcNAc(b1-3)Gal(b1-4)GlcNAc(b1-2)Man(a1-3)]Man(b1-4)GlcNAc(b1-4)[Fuc(a1-6)]GlcNAc
Procedure, shortened: (§1)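 Columns mapping to the same glycan were averaged after glycan names were converted to IUPAC-condensed notation. The data come from 3228 arrays in the Consortium for Functional Glycomics database, limited to those with an available protein sequence. Binding is reported as a within-array Z-score averaged across arrays of one protein sequence and across linkers.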

[2] = biological target: GlcNAc(b1-3)Gal(b1-4)GlcNAc(b1-3)Gal(b1-4)GlcNAc(b1-3)GalNAc
Procedure, shortened: as §1

[3] = biological target: GlcNAc(b1-3)Gal(b1-4)GlcNAc(b1-3)GalNAc
Procedure, shortened: as §1

[4] = biological target: GlcNAc(b1-3)Gal(b1-4)GlcNAc(b1-3)[GlcNAc(b1-3)Gal(b1-4)GlcNAc(b1-3)]GalNAc
Procedure, shortened: as §1

[5] = biological target: GlcNAc(b1-3)Gal(b1-4)GlcNAc(b1-6)[Gal(b1-3)]GalNAc
Procedure, shortened: as §1

[6] = biological target: GlcNAc(b1-3)Gal(b1-4)GlcNAc(b1-6)[GlcNAc(b1-3)Gal(b1-3)]GalNAc
Procedure, shortened: as §1

[7] = biological target: GlcNAc(b1-3)Gal(b1-4)GlcNAc(b1-6)[GlcNAc(b1-3)]Gal(b1-4)GlcNAc
Procedure, shortened: as §1

GlcNAc(b1-3)GalNAc = biological target: GlcNAc(b1-3)GalNAc
Procedure, shortened: as §1

GlcNAc(b1-3)Man = biological target: GlcNAc(b1-3)Man
Procedure, shortened: as §1

[8] = biological target: GlcNAc(b1-3)[GlcNAc(b1-4)][GlcNAc(b1-6)]GlcNAc
Procedure, shortened: as §1

[9] = biological target: GlcNAc(b1-3)[GlcNAc(b1-6)]Gal(b1-4)GlcNAc
Procedure, shortened: as §1

[10] = biological target: GlcNAc(b1-3)[GlcNAc(b1-6)]GalNAc
Procedure, shortened: as §1

[11] = biological target: GlcNAc(b1-4)Gal(b1-4)GlcNAc
Procedure, shortened: as §1

GlcNAc(b1-4)GlcNAc = biological target: GlcNAc(b1-4)GlcNAc
Procedure, shortened: as §1

[12] = biological target: GlcNAc(b1-4)GlcNAc(b1-4)GlcNAc
Procedure, shortened: as §1

[13] = biological target: GlcNAc(b1-4)GlcNAc(b1-4)GlcNAc(b1-4)GlcNAc(b1-4)GlcNAc
Procedure, shortened: as §1

[14] = biological target: GlcNAc(b1-4)GlcNAc(b1-4)GlcNAc(b1-4)GlcNAc(b1-4)GlcNAc(b1-4)GlcNAc
Procedure, shortened: as §1

[15] = biological target: GlcNAc(b1-4)[GlcNAc(b1-6)]GalNAc
Procedure, shortened: as §1

[16] = biological target: GlcNAc(b1-6)Gal(b1-4)GlcNAc
Procedure, shortened: as §1

GlcNAc(b1-6)GalNAc = biological target: GlcNAc(b1-6)GalNAc
Procedure, shortened: as §1

[17] = biological target: GlcNAc6S(b1-3)Gal(b1-4)GlcNAc
Procedure, shortened: as §1

Kdn(a2-3)Gal(b1-3)GalNAc = biological target: Kdn(a2-3)Gal(b1-3)GalNAc
Procedure, shortened: as §1

Kdn(a2-3)Gal(b1-3)GlcNAc = biological target: Kdn(a2-3)Gal(b1-3)GlcNAc
Procedure, shortened: as §1

Kdn(a2-3)Gal(b1-4)Glc = biological target: Kdn(a2-3)Gal(b1-4)Glc
Procedure, shortened: as §1

Kdn(a2-3)Gal(b1-4)GlcNAc = biological target: Kdn(a2-3)Gal(b1-4)GlcNAc
Procedure, shortened: as §1

[18] = biological target: Kdn(a2-3)Gal(b1-4)[Fuc(a1-3)]GlcNAc
Procedure, shortened: as §1

Kdn(a2-6)Gal(b1-4)GlcNAc = biological target: Kdn(a2-6)Gal(b1-4)GlcNAc
Procedure, shortened: as §1

[19] = biological target: Man(a1-2)Man(a1-2)Man(a1-3)Man
Procedure, shortened: as §1

[20] = biological target: Man(a1-2)Man(a1-2)Man(a1-6)[Man(a1-3)]Man
Procedure, shortened: as §1

Man(a1-2)Man(a1-3)Man = biological target: Man(a1-2)Man(a1-3)Man
Procedure, shortened: as §1

[21] = biological target: Man(a1-2)Man(a1-3)[Man(a1-2)Man(a1-6)]Man
Procedure, shortened: as §1

[22] = biological target: Man(a1-2)Man(a1-3)[Man(a1-2)Man(a1-6)]Man(a1-6)[Man(a1-2)Man(a1-2)Man(a1-3)]Man
Procedure, shortened: as §1

[23] = biological target: Man(a1-2)Man(a1-3)[Man(a1-2)Man(a1-6)]Man(a1-6)[Man(a1-2)Man(a1-2)Man(a1-3)]Man(b1-4)GlcNAc(b1-4)GlcNAc
Procedure, shortened: as §1

[24] = biological target: Man(a1-2)Man(a1-3)[Man(a1-6)]Man(a1-6)[Man(a1-2)Man(a1-3)]Man(b1-4)GlcNAc(b1-4)GlcNAc
Procedure, shortened: as §1

[25] = biological target: Man(a1-2)Man(a1-6)[Man(a1-3)]Man(a1-6)[Man(a1-2)Man(a1-2)Man(a1-3)]Man
Procedure, shortened: as §1

[26] = biological target: Man(a1-2)Man(a1-6)[Man(a1-3)]Man(a1-6)[Man(a1-2)Man(a1-2)Man(a1-3)]Man(b1-4)GlcNAc(b1-4)GlcNAc
Procedure, shortened: as §1

Man(a1-3)[Man(a1-6)]Man = biological target: Man(a1-3)[Man(a1-6)]Man
Procedure, shortened: as §1

B1: Epa9 (Candida glabrata), CAGL0A01386g (protein)
chain: MGSSHHHHHHSSGLVPRGSHMDITPFAHYPRPEGCSSPPNAVSVGLHMDLYNYPYLYVKNPRTGFTNDTDSDADGETDGDSAGGIEGRAGQCWNPEYQDPNFPRYGYKKYGSFGSSDHVNGKISWDHNEFKEGCKPIMARLPTAYNYPAKITFSNFTMVLSGYFKPKSTGLYKFEIHADDFILFNFGSKNAFECCNREESIDNFGPYVAYAMWPNEADQELEVYLFEDSYYPIRLFYNNRDYHSKFMVGFYPPNTEEITYDFDGYLYMLDDTGNECKDSIRYKTVCDD
- glycan array binding signal (z-score) [1]: -0.234
- glycan array binding signal (z-score) [2]: -0.475
- glycan array binding signal (z-score) [3]: -0.458
- glycan array binding signal (z-score) [4]: -0.395
- glycan array binding signal (z-score) [5]: 0.614
- glycan array binding signal (z-score) [6]: -0.454
- glycan array binding signal (z-score) [7]: -0.506
- glycan array binding signal (z-score) (GlcNAc(b1-3)GalNAc): -0.493
- glycan array binding signal (z-score) (GlcNAc(b1-3)Man): -0.505
- glycan array binding signal (z-score) [8]: -0.457
- glycan array binding signal (z-score) [9]: -0.452
- glycan array binding signal (z-score) [10]: -0.456
- glycan array binding signal (z-score) [11]: -0.496
- glycan array binding signal (z-score) (GlcNAc(b1-4)GlcNAc): -0.49
- glycan array binding signal (z-score) [12]: -0.472
- glycan array binding signal (z-score) [13]: -0.484
- glycan array binding signal (z-score) [14]: -0.49
- glycan array binding signal (z-score) [15]: -0.483
- glycan array binding signal (z-score) [16]: 0.361
- glycan array binding signal (z-score) (GlcNAc(b1-6)GalNAc): -0.467
- glycan array binding signal (z-score) [17]: 1.15
- glycan array binding signal (z-score) (Kdn(a2-3)Gal(b1-3)GalNAc): -0.446
- glycan array binding signal (z-score) (Kdn(a2-3)Gal(b1-3)GlcNAc): -0.454
- glycan array binding signal (z-score) (Kdn(a2-3)Gal(b1-4)Glc): -0.399
- glycan array binding signal (z-score) (Kdn(a2-3)Gal(b1-4)GlcNAc): -0.394
- glycan array binding signal (z-score) [18]: -0.358
- glycan array binding signal (z-score) (Kdn(a2-6)Gal(b1-4)GlcNAc): -0.387
- glycan array binding signal (z-score) [19]: -0.43
- glycan array binding signal (z-score) [20]: -0.491
- glycan array binding signal (z-score) (Man(a1-2)Man(a1-3)Man): -0.467
- glycan array binding signal (z-score) [21]: -0.635
- glycan array binding signal (z-score) [22]: -0.575
- glycan array binding signal (z-score) [23]: -0.329
- glycan array binding signal (z-score) [24]: -0.578
- glycan array binding signal (z-score) [25]: -0.519
- glycan array binding signal (z-score) [26]: -0.486
- glycan array binding signal (z-score) (Man(a1-3)[Man(a1-6)]Man): -0.466
